Values joined by “and” are separate entries in the source; they are usually repeats but may differ in a detail not shown here. Identical values can stand only once. Inconclusive means that the source gave no clear call. Such entries were picked first, then a sample of the others. Potencies of inconclusive entries are doubtful fits and often do not repeat. Active and inactive are the calls of the source. Calls come from the whole dose curve; as a rule, active = well fitted curve in the direction sought with a large enough effect; inconclusive = small, poorly fitted or top-dose-only effect, or another doubt; inactive = no such curve, though single readings can be large; an effect the other way counts as inactive or inconclusive.
Key:
[1] = system: Zika virus NS2B-NS3 protease (linked construct); assay: Primary screen NINDS Rhodamine qHTS for Zika virus inhibitors (AID 1347160); note: nearly all actives have a fitted effect of over 55% in size
How it was run: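 Percent inhibition, normalized to uninhibited and enzyme-free controls, is fitted to a 4-parameter Hill equation. Fluorescence change comes from a 15-min cleavage of 1.5 microM bis-peptide Rhodamine110 substrate by 25 nM linked NS2B-NS3 at room temperature.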

[2] = OV-KATE Cancer Cell Toxicity qHTS against the NCATS CANVASS Library (AID 1347345); for activity change, negative = cytotoxicity: % is set by controls: 0 for no effect and ±100 for the full control effect
How it was run: (§1)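 1000 cells/well seeded and rested 4 h at 37 °C before pin transfer of compounds in an 11-pnt series. Exposure 72 h at 37 °C/5% CO2; viability by CellTiter-Glo luminescence after 15 min at room temperature.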

[3] = UWB1.289 Cancer Cell Toxicity qHTS against the NCATS CANVASS Library (AID 1347347); note: nearly all actives have a fitted effect of over 60% in size; for activity change, negative = cytotoxicity: % is set by controls: 0 for no effect and ±100 for the full control effect
How it was run: as §1

[4] = Panc-1005 Cancer Cell Toxicity qHTS against the NCATS CANVASS Library (AID 1347349); note: nearly all actives have a fitted effect of over 60% in size
How it was run: as §1

[5] = U-118MG Cancer Cell Toxicity qHTS against the NCATS CANVASS Library (AID 1347351)
How it was run: as §1

[6] = UWB1.289-WTBRCA1 Cancer Cell Toxicity qHTS against the NCATS CANVASS Library (AID 1347354); for activity change, negative = cytotoxicity: % is set by controls: 0 for no effect and ±100 for the full control effect
How it was run: (§2)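 Cells at 1000/well were given compound 4 h after plating in an 11-point series. Viability was read by CellTiter-Glo luminescence after 72 h at 37 degrees C.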

[7] = HEK-293 Cancer Cell Toxicity qHTS against the NCATS CANVASS Library (AID 1347355); note: nearly all actives have a fitted effect of over 65% in size
How it was run: as §2

[8] = qHTS for Hypoxia signaling pathway (HIF-1) antagonists against the NCATS CANVASS Library (AID 1347374); note: nearly all actives have a fitted effect of over 60% in size
How it was run: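 HRE-bla ME-180 cells in medium with 0.5% dialyzed FBS received compounds (11-point series) plus CoCl2 (60 uM addition stock) for 17 hrs at 37C. Beta-lactamase activity read with CCF4 (405 nm ex, 460/530 nm em); CellTiter-Glo viability measured in same wells.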

[9] = qHTS for Activators of p53 Stress Response Pathway screened against the NCATS CANVASS Library (AID 1347388)
How it was run: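 Beta-lactamase reporter driven by p53 response elements in HCT-116 cells, read as the 460 nm/530 nm emission ratio after CCF4 loading, following 16 h of exposure to an 11-point series. Cell viability was measured in the same wells by CellTiter-Glo luminescence.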

[10] = Secretion counterscreen for inhibitors of the SERCaMP assay screened against the NCATS CANVASS Library (AID 1347390); conditions: SH-SY5Y constitutive GLuc secretion, luminescence, 20 h; activity change, negative = inhibition: at 76.6 µM (top of the series);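 note: light from luciferase secreted into medium read as a measure of general secretion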; for activity change, negative = inhibition: % is set by controls: 0 for no effect and ±100 for the full control effect
How it was run: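 SH-SY5Y cells with constitutively secreted GLuc reporter, 1000 cells/well, treated 20 h at 37C with compounds at 0.001 - 77 uM final; secreted luciferase read as luminescence after coelenterazine; Brefeldin A as positive control.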

[11] = qHTS for activators of Nrf2/ARE signaling pathway screened against the NCATS CANVASS Library (AID 1347391); note: nearly all actives have a fitted effect of over 60% in size
How it was run: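 ARE-bla HepG2 beta-lactamase reporter cells exposed to compounds for 16 h at 37C; CCF4 substrate 2 h, fluorescence at ex 405 nm, em 460/530 nm. Viability by CellTiter-Glo luminescence.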

[12] = qHTS for inhibitors of ER calcium dysfunction: SERCaMP assay screened against the NCATS CANVASS Library (AID 1347393); conditions: SH-SY5Y GLuc-SERCaMP (Gaussia luciferase released on ER calcium loss) secretion, thapsigargin, luminescence; activity change, negative = inhibition: at 76.6 µM (top of the series) unless noted; note: nearly all actives have a fitted effect of over 40% in size
How it was run: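 Thapsigargin-induced ER calcium depletion drives GLuc-SERCaMP secretion from SH-SY5Y cells; compounds given 16 h beforehand were scored by lowered coelenterazine luminescence after 4 h challenge.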

[13] = qHTS for inhibitors of Wild type Zika virus screened against the NCATS CANVASS Library (AID 1347396)
How it was run: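 Using ATP-based luminescence (CellTiter Glo), this screen scores rescue of Vero 766 cells from wild-type Zika killing at 72 h post-infection. Compounds are tested in a concentration series.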

[14] = Viability qHTS for inhibitors of the SERCaMP assay screened against the NCATS CANVASS Library (AID 1347400); note: nearly all actives have a fitted effect of over 70% in size
How it was run: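 SH-SY5Y-GLuc SERCaMP MJH297-derived cells, 1000/well, plated 4 h, then exposed to compounds in an 11-point qHTS series for 48 h at 37C. Viability read as CellTiter-Glo luminescence.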

[15] = KB-8-5-11 Cancer Cell Toxicity qHTS against the NCATS CANVASS Library (AID 1347364); conditions: activity change, negative = toxicity: at 46.1 µM (top of the series); note: nearly all actives have a fitted effect of over 75% in size
How it was run: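 KB-8-5-11 cells, 500/well in DMEM + 10% FBS, given compounds in an 11-point series. Incubated 72 h at 37 °C. Viability by CellTiter-Glo luminescence. Confirmation also run with 1 uM tariquidar.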

[16] = SW1088 Cancer Cell Toxicity qHTS against the NCATS CANVASS Library (AID 1347350); note: nearly all actives have a fitted effect of over 75% in size
How it was run: as §1

[17] = A2780 Cisplatin Sensitive Ovarian Cancer Cell Toxicity qHTS against the NCATS CANVASS Library (AID 1347353); note: nearly all actives have a fitted effect of over 60% in size
How it was run: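 A2780 cells, 750/well, settled 4 h at 37 °C, then treated with an 11-point compound series for 72 h. Viability was read as ATPLite luminescence after 10 min at room temperature, with bortezomib as control.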

[18] = qHTS for Antimalaria activity screened against the NCATS CANVASS Library (AID 1347380); note: nearly all actives have a fitted effect of over 40% in size;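 for activity change, negative = inhibition: Plasmodium falciparum strain Dd2 asexual parasites grown in red blood cells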
How it was run: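 Red blood cells infected with P. falciparum Dd2 (2.5% hematocrit final, 0.3% parasitemia) were exposed to compounds in an 11-point qHTS series for 72 hr at 37C under 5% O2 and 5% CO2. Lysis buffer with SYBR Green was then added for 18 hr, and fluorescence was read at 485/535 nm.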

[19] = HPAF-II Cancer Cell Toxicity qHTS against the NCATS CANVASS Library (AID 1347346); note: nearly all actives have a fitted effect of over 55% in size
How it was run: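 HPAF-II cells at 1000 cells/well were treated with an 11-point concentration series for 72 hours at 37 degrees C. Viability read by CellTiter-Glo luminescence.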

[20] = OV-SAHO Cancer Cell Toxicity qHTS against the NCATS CANVASS Library (AID 1347348); conditions: OV-SAHO viability, CellTiter-Glo luminescence, 72 h; activity change, negative = cytotoxicity: at 38.3 µM (top of the series); note: nearly all actives have a fitted effect of over 55% in size
How it was run: as §1
Potency is the fitted concentration of half-maximal effect; tags give direction and shape of the fitted curve.

C/C=C/C(=O)C1(O)CC2CC(C(=O)O)CC(C)C2C1C1=C2C(=O)NC(=O)C2=C(CCCCC)C(C)O1 (configuration not stated)
inconclusive: Potency [2] 29.8 µM [cytotoxic, single point] | Potency [3] 5.94 µM [cytotoxic, full curve] | Potency [4] 16.8 µM [cytotoxic, partial curve] | Potency [5] 21.1 µM [cytotoxic, partial curve] | Potency [6] 21.1 µM [cytotoxic, single point] | Potency [7] 33.2 µM [cytotoxic, single point] | activity change, negative = inhibition [10] -41.1% [inhibitor] | Potency [13] 29.3 µM [inhibitor, partial curve, poor fit] | Potency [14] 42.8 µM [cytotoxic, partial curve]
active: Potency [1] 49.3 µM | Potency [8] 5.94 µM | Potency [9] 7.41 µM | Potency [11] 1.17 µM | Potency [12] 19.3 µM

COc1cc(/C=C/C(=O)OC[C@@H](Cc2ccc(O)c(OC)c2)[C@@H](COC(=O)/C=C/c2ccc(O)c(OC)c2)Cc2ccc(O)c(OC)c2)ccc1O
inconclusive: Potency [2] 29.8 µM [cytotoxic, single point] | Potency [6] 29.8 µM [cytotoxic, single point] | Potency [13] 7.37 µM [inhibitor, full curve] | Potency [14] 67.8 µM [cytotoxic, single point]
active: Potency [1] 31.1 µM | Potency [3] 10.6 µM | Potency [7] 11.8 µM | Potency [15] 13.2 µM | Potency [12] 3.43 µM

C/C1=C/[C@@H](C)[C@H](O)C/C=C/CC/C=C/C(=O)O[C@@H]1[C@H](C)C(=O)/C=C/CC1CC(=O)NC(=O)C1
active: Potency [1] 44 µM | Potency [2] 18.8 µM | Potency [16] 21.1 µM | Potency [5] 21.1 µM | Potency [12] 4.31 µM | Potency [14] 38.1 µM
inconclusive: Potency [3] 5.94 µM [cytotoxic, full curve] | Potency [6] 14.9 µM [cytotoxic, partial curve] | Potency [9] 8.31 µM [activator, partial curve, poor fit] | Potency [10] 60.9 µM [inhibitor, single point]

COc1ccc([C@@H]2CC(=O)c3c(cc(O)c(C/C=C(\C)CCC=C(C)C)c3O)O2)cc1
active: Potency [1] 7.2 µM
inactive: activity change, negative = inhibition [10] 35.7% [at 15.3 µM]
inconclusive: Potency [2] 5.47 µM [cytotoxic, single point] | Potency [3] 3.87 µM [cytotoxic, single point] | Potency [16] 5.44 µM [cytotoxic, single point] | Potency [17] 5.4 µM [cytotoxic, partial curve, poor fit] | Potency [15] 0.054 µM [cytotoxic, full curve, poor fit] | Potency [18] 1090 nM [cytotoxic, partial curve] | Potency [11] 5.42 µM [activator, partial curve] | Potency [12] 7.06 µM [inhibitor, partial curve, poor fit] | Potency [13] 6.79 µM [inhibitor, single point]

CC[C@@H](c1cc(OC)c(OC)cc1OC)[C@H](C)[C@@H](/C(C)=C/c1cc(OC)c(OC)cc1OC)c1cc(OC)c(OC)cc1OC
active: Potency [16] 11.9 µM | Potency [18] 747 nM and 1.88 µM
inconclusive: Potency [1] 87.7 µM [inhibitor, single point] | Potency [19] 8.41 µM [cytotoxic, partial curve] and 9.43 µM [cytotoxic, partial curve] | Potency [3] 14.9 µM [cytotoxic, partial curve] | Potency [20] 21.1 µM [cytotoxic, single point] and 14.9 µM [cytotoxic, partial curve] | Potency [4] 18.8 µM [cytotoxic, single point] and 10.6 µM [cytotoxic, partial curve] | Potency [15] 37.2 µM [cytotoxic, single point] | Potency [8] 29.8 µM [inhibitor, single point] and 13.3 µM [inhibitor, partial curve] | Potency [11] 3.31 µM [activator, full curve] and 5.88 µM [activator, partial curve]

COc1ccc([C@@H]2c3cc4c(cc3C(=O)C(C)C2C)OCO4)cc1OC (some centres not stated)
inconclusive: Potency [1] 49.3 µM [inhibitor, partial curve, poor fit] | Potency [15] 26.4 µM [cytotoxic, single point] | Potency [18] 1.9 nM [cytotoxic, full curve] | Potency [10] 60.9 µM [inhibitor, single point] | Potency [11] 18.6 µM [activator, partial curve, poor fit]
inactive: Potency [2] | Potency [3]
active: Potency [12] 7.67 µM

CC(C)(Br)[C@@H](Cl)C[C@H](Br)[C@](C)(Cl)/C=C/Br
inconclusive: Potency [20] 16.7 µM [cytotoxic, partial curve] | Potency [4] 16.8 µM [cytotoxic, single point] | Potency [16] 29.8 µM [cytotoxic, single point] | Potency [7] 20.9 µM [cytotoxic, partial curve] | Potency [15] 23.5 µM [cytotoxic, single point] | Potency [8] 23.6 µM [inhibitor, single point] | Potency [11] 20.9 µM [activator, partial curve] | Potency [14] 0.604 µM [cytotoxic, partial curve, poor fit]
active: Potency [1] 34.9 µM | Potency [19] 26.6 µM | Potency [3] 18.8 µM | Potency [12] 21.6 µM
inactive: Potency [18] | Potency [13]

C/C(=C\[C@H](C)C(=O)CCCC1CC(=O)NC(=O)C1)[C@@H]1OC(=O)/C=C/CC/C=C/C[C@@H](O)[C@@H]1C
inactive: Potency [9]
active: Potency [1] 17.5 µM | Potency [2] 2.11 µM | Potency [3] 2.11 µM | Potency [20] 2.98 µM
inconclusive: Potency [16] 11.9 µM [cytotoxic, partial curve, poor fit] | Potency [5] 2.11 µM [cytotoxic, full curve] | Potency [6] 4.2 µM [cytotoxic, full curve] | Potency [15] 23.5 µM [cytotoxic, single point] | Potency [18] 8390 nM [cytotoxic, partial curve, poor fit]

COc1ccc([C@@H]2c3cc4c(cc3C(=O)[C@H](C)C2C)OCO4)cc1OC (some centres not stated)
active: Potency [7] 18.7 µM | Potency [15] 16.6 µM | Potency [9] 11.7 µM
inactive: Potency [6]
inconclusive: Potency [1] 17.5 µM [inhibitor, partial curve] | Potency [19] 23.7 µM [cytotoxic, single point] | Potency [3] 14.9 µM [cytotoxic, partial curve] | Potency [4] 18.8 µM [cytotoxic, single point] | Potency [5] 10.6 µM [cytotoxic, partial curve, poor fit] | Potency [17] 37.2 µM [cytotoxic, single point] | Potency [18] 4.7 nM [cytotoxic, full curve, poor fit] | Potency [11] 37.1 µM [activator, partial curve, poor fit] | Potency [14] 67.8 µM [cytotoxic, single point]

C[C@H](CCC(O)C(C)(O)CO)[C@@]1(O)CC[C@@]2(C)C3=C(CC[C@@]21C)[C@@]1(C)CCC(OC(=O)CCC(=O)O)C(C)(C)[C@@H]1CC3 (some centres not stated)
inconclusive: Potency [1] 11 µM [inhibitor, full curve, poor fit] | Potency [19] 29.8 µM [cytotoxic, single point] | Potency [3] 21.1 µM [cytotoxic, single point] | Potency [16] 29.8 µM [cytotoxic, single point] | Potency [18] 5.3 nM [cytotoxic, full curve, poor fit] | Potency [11] 13.2 µM [activator, partial curve] | Potency [13] 36.9 µM [inhibitor, single point]
inactive: Potency [20] | Potency [15] | Potency [10]

C=C[C@@](C)(O)CC[C@@H]1[C@@]2(C)CCCC(C)(C)[C@@H]2CC[C@@]1(C)O
inactive: Potency [17] | Potency [14]
inconclusive: Potency [1] 34.9 µM [inhibitor, partial curve] | Potency [19] 29.8 µM [cytotoxic, single point] | Potency [3] 11.8 µM [cytotoxic, partial curve] | Potency [4] 29.8 µM [cytotoxic, single point] | Potency [16] 29.8 µM [cytotoxic, single point] | Potency [5] 29.8 µM [cytotoxic, single point] | Potency [7] 26.4 µM [cytotoxic, single point] | Potency [15] 26.4 µM [cytotoxic, single point] | Potency [18] 6.7 nM [cytotoxic, full curve, poor fit] | Potency [10] 0.343 µM [inhibitor, single point] | Potency [12] 38.4 µM [inhibitor, partial curve]

From PubChem BioAssay (NCATS)
